# Source: the supplement of paper PMC7826260
# Some of the results follow. Cleavage of a single-stranded DNA pool by Rep nickase domains was read by sequencing (3 µM enzyme, 1 h, 37 °C); shown is the middle of each 90-letter strand. Values are log2 of uncut reads against the no-enzyme pool; more negative means more cut, near 0 not cut, and no call is made. The scaling is to total reads; uncut strands gain when others are lost, and binding without cutting may add a little.
# Legend:
# Test in all cases: uncleaved DNA left, log2 of reads against the no-enzyme library (log2 ratio); higher = less cleavage (more negative = more Rep cleavage of the k-mer); sequences stand for … in CTCGTCCG…ACCGGAGA
# [1] = system: T1, Rep nickase domain of Muscovy duck circovirus
# T1 sequence (Rep 1-111, printed without the tag): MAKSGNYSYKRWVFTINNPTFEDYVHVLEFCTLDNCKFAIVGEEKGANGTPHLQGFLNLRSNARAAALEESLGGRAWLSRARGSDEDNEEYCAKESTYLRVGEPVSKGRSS
# Description: (§1)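 A pool of 90-nt single-stranded DNAs with seven random bases just before the constant AC of the nick site (name = the seven bases) was cut by 3 µM recombinant His6-SUMO-tagged Rep nickase domain (300 nM DNA, 50 mM HEPES pH 8.0, 50 mM NaCl, 1 mM MnCl2, 1 h, 37 °C, three replicates). Uncut DNA was amplified and sequenced.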
# [2] = system: T2, Rep nickase domain of banana bunchy top virus
# T2 sequence (Rep 1-94, printed without the tag): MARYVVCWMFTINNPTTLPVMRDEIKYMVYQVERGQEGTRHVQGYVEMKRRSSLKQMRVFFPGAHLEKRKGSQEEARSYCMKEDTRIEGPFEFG
# Description: as §1
# [3] = system: T3, Rep nickase domain of cabbage leaf curl virus
# T3 sequence (Rep 1-116, printed without the tag): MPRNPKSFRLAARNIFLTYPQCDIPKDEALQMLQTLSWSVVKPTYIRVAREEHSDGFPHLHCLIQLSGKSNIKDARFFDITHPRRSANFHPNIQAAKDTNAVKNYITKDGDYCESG
# Description: as §1
# [4] = system: T4, Rep nickase domain of chickpea chlorotic dwarf virus
# T4 sequence (Rep 1-124, printed without the tag): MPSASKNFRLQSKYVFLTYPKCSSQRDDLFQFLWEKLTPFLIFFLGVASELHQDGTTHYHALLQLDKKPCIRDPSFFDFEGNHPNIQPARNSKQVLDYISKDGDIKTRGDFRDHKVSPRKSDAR
# Description: as §1
# [5] = system: T5, Rep nickase domain of faba bean necrotic yellows virus
# T5 sequence (Rep 1-98, printed without the tag): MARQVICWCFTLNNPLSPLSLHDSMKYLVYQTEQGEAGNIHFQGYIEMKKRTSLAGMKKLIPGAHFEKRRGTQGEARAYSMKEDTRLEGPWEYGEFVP
# Description: as §1
# [6] = system: T6, Rep nickase domain of maize striate mosaic virus
# T6 sequence (Rep 1-117, printed without the tag): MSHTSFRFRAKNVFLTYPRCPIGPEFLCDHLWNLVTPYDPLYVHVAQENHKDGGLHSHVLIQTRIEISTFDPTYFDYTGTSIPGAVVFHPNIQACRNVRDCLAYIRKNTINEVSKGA
# Description: as §1
# [7] = system: T7, Rep nickase domain of porcine circovirus 2
# T7 sequence (Rep 2-116, printed without the tag): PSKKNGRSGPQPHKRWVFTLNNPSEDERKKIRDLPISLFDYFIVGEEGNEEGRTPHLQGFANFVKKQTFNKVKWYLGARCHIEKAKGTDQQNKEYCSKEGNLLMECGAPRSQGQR
# Description: as §1
# [8] = system: T8, Rep nickase domain of tomato yellow leaf curl virus
# T8 sequence (Rep 1-136, printed without the tag): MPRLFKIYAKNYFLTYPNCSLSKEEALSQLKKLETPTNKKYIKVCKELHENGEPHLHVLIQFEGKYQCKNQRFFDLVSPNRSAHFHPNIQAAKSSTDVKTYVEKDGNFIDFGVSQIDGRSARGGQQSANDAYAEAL
# Description: as §1
# [9] = system: T9, Rep nickase domain of wheat dwarf virus
# T9 sequence (Rep 1-137, printed without the tag): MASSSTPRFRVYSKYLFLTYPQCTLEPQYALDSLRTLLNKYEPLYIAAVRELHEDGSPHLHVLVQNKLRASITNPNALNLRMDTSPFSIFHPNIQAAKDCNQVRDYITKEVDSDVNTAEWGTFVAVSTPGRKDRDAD
# Description: as §1
Sequence,uncleaved DNA left (log2) [1],uncleaved DNA left (log2) [2],uncleaved DNA left (log2) [3],uncleaved DNA left (log2) [4],uncleaved DNA left (log2) [5],uncleaved DNA left (log2) [6],uncleaved DNA left (log2) [7],uncleaved DNA left (log2) [8],uncleaved DNA left (log2) [9]
AGGTCCG,0.0354,0.0653,-0.708,-0.223,0.0429,-0.852,0.186,-0.0632,-0.0191
TCTCACC,-0.184,-0.152,-0.193,-0.821,-0.144,-0.334,-0.975,-0.178,-0.505
TTAAGTA,0.132,0.107,-0.715,-2.35,0.048,-0.346,-0.0685,0.0186,-0.283
CACCCGC,-0.23,-0.0556,-0.434,-0.791,-0.072,-0.99,-0.313,0.0162,-0.0993
CGGTTCC,-0.0587,-0.0589,0.242,0.535,-0.0148,0.958,-0.0538,0.0601,-0.0725
CGTAAAG,0.0554,-0.0518,-0.622,-0.415,-0.0296,-1.1,0.118,-0.0399,-0.111
CACGTAT,0.192,0.153,0.0267,-1.17,0.026,-0.237,-0.0208,0.108,0.0848
CACGAAC,0.0235,-0.0578,-0.105,-0.128,0.0122,-0.736,0.176,-0.00245,0.0174
AATTGCG,0.000287,-0.025,0.661,1.5,0.214,2.18,0.127,-0.25,0.121
GGATGGG,0.0846,-0.0371,-0.115,0.0546,-0.00903,-0.408,0.231,-0.0552,-0.106
CAGTCTC,-0.136,-0.438,-0.3,-0.326,-0.53,-0.058,-3.34,-0.118,-0.164
GCCCACC,-0.0275,0.0232,0.148,0.123,-0.0477,0.195,-0.144,-0.183,0.051
GGTGTGA,0.248,0.135,0.37,0.936,0.0539,1.19,0.248,0.122,0.148
ATCAAAT,-0.0316,0.086,0.0868,-0.572,-0.0958,-0.515,0.0636,-0.0192,-0.00336
TGCATAG,0.0874,0.0125,-0.599,-0.48,0.156,-1.25,0.203,0.0694,0.00465
CAGGCAG,0.0546,-0.00365,-0.491,-0.332,0.0824,-0.812,0.209,0.0634,-0.0297
CAGCCGA,0.0526,-0.141,-0.46,-0.578,-0.108,-0.806,0.0487,0.0324,-0.0983
AAGAAGT,-0.0434,-0.0837,0.212,0.767,0.0572,0.647,-3.01,-0.158,-0.0146
AAAGCTA,0.0958,0.083,0.271,0.623,0.0276,1.21,0.106,-0.0889,0.094

Sequence,uncleaved DNA left (log2) [1],uncleaved DNA left (log2) [2],uncleaved DNA left (log2) [3],uncleaved DNA left (log2) [4],uncleaved DNA left (log2) [5],uncleaved DNA left (log2) [6],uncleaved DNA left (log2) [7],uncleaved DNA left (log2) [8],uncleaved DNA left (log2) [9]
ACGTCTT,-1.53,-0.28,-0.292,-2.04,-0.346,-0.262,-3.07,-0.0585,-0.0414
GCGAGTA,-0.00805,-0.0844,-0.00219,0.375,0.0296,1.08,-0.143,-0.1,-0.0888
TCCCGAG,0.158,0.211,0.804,1.53,0.125,0.987,0.251,0.184,0.358
CCTTGTC,-0.0097,-0.123,-0.144,-0.559,-0.139,-0.97,0.00448,-0.106,-0.129
ACTCTGG,0.0785,-0.0792,-0.591,-0.674,-0.15,-1.04,0.165,-0.012,-0.145
TCCGTGC,-0.0445,-0.0927,-0.302,-0.402,-0.0214,-0.728,0.185,-0.0466,-0.0642
GCAAGGC,0.0774,0.132,0.00921,0.313,0.0761,-0.623,0.212,0.0912,0.0758
TGCGATA,0.0841,-0.0872,-0.144,-0.317,0.02,-0.425,0.0133,0.0295,-0.0348
AGTATTT,0.0261,-0.231,0.0661,-2.24,-0.272,0.122,-3.24,-0.0561,-0.0459
GGGCTTG,0.113,-0.0448,0.736,1.64,-0.0497,2.1,0.0871,-0.00317,0.13
GCCAGCC,0.0519,-0.0133,0.0869,0.315,0.0365,-0.293,0.121,-0.0231,0.0324
AAGCGTA,0.167,0.0713,0.096,0.0779,0.196,0.204,-0.0195,0.135,0.0299
ACATCAG,0.00329,0.0858,-0.478,0.414,0.161,-0.61,0.184,0.11,-0.0155
CGGAAGA,-0.0312,-0.0359,-0.0338,0.288,-0.0108,-0.325,0.0808,-0.00355,-0.0353
CACCAAA,0.128,0.216,0.0789,-0.898,0.163,-0.63,-0.0246,0.111,0.183
ACTACTT,0.00912,-0.0839,-0.149,-2.69,0.129,-0.577,-2.04,-0.0762,-0.125
AGGCGTT,-0.000987,-0.00985,-0.0888,-0.0476,-0.0587,0.0931,-0.104,-0.0113,-0.0779
TTGACCT,-0.0927,0.0099,0.0118,0.123,-0.0226,0.635,-0.0604,0.0822,0.0768
GTGGCGT,-0.138,-0.0903,0.339,0.833,-0.147,0.59,-0.0168,-0.11,0.0208

Sequence,uncleaved DNA left (log2) [1],uncleaved DNA left (log2) [2],uncleaved DNA left (log2) [3],uncleaved DNA left (log2) [4],uncleaved DNA left (log2) [5],uncleaved DNA left (log2) [6],uncleaved DNA left (log2) [7],uncleaved DNA left (log2) [8],uncleaved DNA left (log2) [9]
AGCGACC,-0.0396,0.0049,-0.0542,0.65,0.015,1.01,0.0101,-0.0328,-0.0185
GCGTCCC,-0.133,-0.0578,0.128,0.285,-0.0542,0.405,-0.214,-0.0693,-0.109
TGGGGGA,0.222,0.0573,0.751,1.35,0.0335,1.84,0.186,0.0196,0.0715
GCCCGCA,-0.0541,-0.0939,-0.134,0.00795,-0.0983,-0.415,-0.121,-0.127,-0.171
GTGCCGA,-0.0389,0.0527,0.103,0.502,-0.137,0.202,0.0701,-0.0364,-0.0015
CCCTTAT,0.0974,-0.0717,0.466,-0.188,0.101,-0.0838,-0.973,-0.0677,0.157
CTTATAA,0.24,0.259,0.0819,-0.0321,0.237,-0.51,0.113,0.19,0.338
CAGCCTT,-0.0256,-0.119,-0.301,-2.16,0.0108,0.0323,-2.85,-0.0194,-0.0594
CCTCAGA,-0.00641,0.0745,0.143,0.0653,-0.0161,-0.17,0.0768,-0.103,0.0174
TCACACA,-0.16,-0.073,0.0332,-1.32,-0.114,-0.421,-0.175,0.0211,0.00672
TGGAGGC,0.0904,0.0854,0.352,0.772,0.0256,0.574,0.197,0.0341,0.0552
CCCTCGG,0.0701,-0.0119,0.559,1.42,0.142,1.67,0.113,-0.145,-0.019
TTGGTAT,0.0178,0.0778,0.429,1.31,0.0146,1.62,0.0384,0.104,-0.0011
GCTCATA,0.122,0.0947,0.105,0.264,0.13,0.317,0.0893,0.0877,0.0607
GTGTGTC,0.0471,0.0612,0.267,0.832,-0.0715,1.83,0.00874,-0.04,0.0513
ATCACAA,-0.148,0.00506,-0.0975,-0.29,-0.0328,-0.848,-0.0113,-0.11,0.0568
ACTCGAA,-0.0515,0.00685,-0.242,-0.19,0.0978,-0.886,0.131,-0.0396,0.0299
CCCATAA,-0.222,-0.0463,-0.27,-0.324,-0.0229,-0.893,-0.0478,-0.149,-0.178
